Experimental data published in the supplement of paper PMC11417369.
± gives the standard deviation of the averaged measurements. This is one part of the list.

The sequences below were run on PfAP2-G AP2 domain (GST-tagged) (assay: gcPBM binding intensity (ln(normalized median fluorescence intensity)); higher = stronger DNA binding).
Method in brief: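 The highest Masliner-normalised natural-log median intensity across replicate spots of either probe orientation is reported as binding intensity. GST-tagged P. falciparum DNA-binding domains expressed in E. coli were applied for 1 h to an Agilent 4 × 180k array of primer-extended double-stranded 36-bp intergenic genomic probes plus negative controls, and bound protein was detected with Alexa488 anti-GST antibody and scanned at 488 nm.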
With “TTATAAATTATAGGTACACACAAAAAAAAAAAGAAA [CACACA_site1327]” the “gcPBM binding intensity (ln)” value was 11.4 ± 0.91. For “AAACCACAAAATTTTTTATATATGACCAATACATAG [CACACA_negctrl_site277]”, the “gcPBM binding intensity (ln)” value was 10.7 ± 0.38. With “ATTTATCAATAAAATGCACACACTGTAATATTATTA [CACACA_site3976]” the “gcPBM binding intensity (ln)” value was 10.03 ± 0.071. For “TTATAATAGTTAAATGTACACACTAACTACATGGAA [CACACA_site9070]”, the “gcPBM binding intensity (ln)” value was 11.5 ± 1. For “ATAAACATATCAATATGTACATATTTTTGTTTGTAT [XGTACX_site7018]”, the “gcPBM binding intensity (ln)” value was 11.2 ± 0.7. In the case of “TTCCATATAATTACATGTACACATTTTGAATAATAT [XGTACX_site3692]”, the “gcPBM binding intensity (ln)” value is reported as 11.6 ± 1. In the case of “AGCACAGACGGACACACACACATATATATATATATA [CACACA_site4341]”, the “gcPBM binding intensity (ln)” value is reported as 11.4 ± 0.93. “ATATATATGTATGTATGTACATATTTGAATTTATTT [XGTACX_site8470]” was tested, and the “gcPBM binding intensity (ln)” value was 11.3 ± 0.83. With “ACAGATATACATAAAAAAAAAATAATTTTACATATA [CACACA_negctrl_site929]” the “gcPBM binding intensity (ln)” value was 9.765 ± 0.049. For “GTGATTTAATTGTGTTGTACATATTTATAAATAAAA [XGTACX_site8966]”, the “gcPBM binding intensity (ln)” value was 11.4 ± 0.73. With “AAAAAAAAAAGAAACACACACATTTGTATTTAATAT [CACACA_site5184]” the “gcPBM binding intensity (ln)” value was 9.73 ± 0.2. In the case of “CCCTTTTCTAAATATTGTACGTATAAATTATATTAC [XGTACX_site7676]”, the “gcPBM binding intensity (ln)” value is reported as 11.7 ± 0.88. “TTATTATTATATGAATGTACTTAAAAATACATTTTG [XGTACX_site2959]” was tested, and the “gcPBM binding intensity (ln)” value was 11 ± 0.71. In the case of “ATTCTATATACACGCACACACACTTATATATATATA [CACACA_site3322]”, the “gcPBM binding intensity (ln)” value is reported as 10.5 ± 0.36. For “TATGTGCCAAGACACACACACATATTTATATTTATA [CACACA_site6360]”, the “gcPBM binding intensity (ln)” value was 10.1 ± 0.18. For “TATGAAAAATATCTTTGTACTTAGAAATATATACAC [XGTACX_site5393]”, the “gcPBM binding intensity (ln)” value was 11.1 ± 0.79. With “GTACAGATAAATATTACACACATTTTCATTTTTAAC [CACACA_site5140]” the “gcPBM binding intensity (ln)” value was 10.9 ± 0.54. For “TTGTTCTTTTTTTTTTTATTTTTTAATTTGAAAAGA [CACACA_negctrl_site209]”, the “gcPBM binding intensity (ln)” value was 10.1 ± 0.38. For “AAAAAGAAAAAACGAAGTACAATTATAAGATTATAT [XGTACX_site410]”, the “gcPBM binding intensity (ln)” value was 11.3 ± 0.86. In the case of “ATATTTATATACAAATGTACGCATATAATATATATA [XGTACX_site1232]”, the “gcPBM binding intensity (ln)” value is reported as 11.4 ± 0.93. With “AAACAAAAAAAAAAAAAAAAAAAAAAAAAAAAAAAA [GTGCAC_negctrl_site254]” the “gcPBM binding intensity (ln)” value was 9.59 ± 0.25. For “GATGCACTTTAAAAATGTACTTATACCTTTAATTGT [XGTACX_site6395]”, the “gcPBM binding intensity (ln)” value was 11.1 ± 0.65. With “AAAGTAAAAATATACTGTACAAATTTTTTCCCCTCT [XGTACX_site171]” the “gcPBM binding intensity (ln)” value was 11 ± 0.57. With “AAAGAAAGCACATACACACACAAAAAAAAAAAAGAA [CACACA_site776]” the “gcPBM binding intensity (ln)” value was 10 ± 0.28. In the case of “ATTTTTTAAAAAGTAACACACACTCTTATAAATAAC [CACACA_site7668]”, the “gcPBM binding intensity (ln)” value is reported as 10.3 ± 0.16. “AGAGATTATAAAATATGTACTAAATATTAAATCTTA [XGTACX_site7050]” was tested, and the “gcPBM binding intensity (ln)” value was 10.8 ± 0.64. With “AAAAAAATATTATAATATATATATATATATATATAT [GTGCAC_negctrl_site399]” the “gcPBM binding intensity (ln)” value was 10.1 ± 0.91. For “AATATATACATATATGTACACACATTACAGATGTAC [CACACA_site8227]”, the “gcPBM binding intensity (ln)” value was 11.5 ± 0.73. With “ATAGAATCTGGTAGCTGTACGAGTCGTAGAGTGCAG [XGTACX_site2026]” the “gcPBM binding intensity (ln)” value was 11.4 ± 0.47. For “AGGACTAATATTTGAACACACATATAATATATACAT [CACACA_site3998]”, the “gcPBM binding intensity (ln)” value was 9.93. In the case of “GAATATAAACATATTACACACATCTATAGGTACATT [CACACA_site6983]”, the “gcPBM binding intensity (ln)” value is reported as 11 ± 0.65. With “GAAATGTATATTTTTACATGCAAATAAAATATATAA [TGCATGCA_site439]” the “gcPBM binding intensity (ln)” value was 9.75 ± 0.014. “ATAACGACCTAGACGTGTACATACAAAGGAATGAAA [XGTACX_site4870]” was tested, and the “gcPBM binding intensity (ln)” value was 11.3 ± 0.71. With “CATACACATAGACACACACACATATATACCTATATA [CACACA_site6644]” the “gcPBM binding intensity (ln)” value was 10.1 ± 0.11. “TTTTTCTTGAATCGAAGTACTTAGGAGGGGATATTT [XGTACX_site2862]” was tested, and the “gcPBM binding intensity (ln)” value was 11 ± 0.47. “ACACAATATATATATTGTACATACACATATTTACTA [XGTACX_site1872]” was tested, and the “gcPBM binding intensity (ln)” value was 11.1 ± 0.83. “ATATAAACAAAGCAGTGCACGTAAACAAAACATATA [CACACA_negctrl_site1076]” was tested, and the “gcPBM binding intensity (ln)” value was 10.4 ± 0.18. For “GTTTGATAACACCTACAAACTCTTTTTTTTTTTTTT [CACACA_negctrl_site1134]”, the “gcPBM binding intensity (ln)” value was 10 ± 0.13. With “TATGTATAAATATTAACACACAAAAAAAAAAAAAAA [CACACA_site6938]” the “gcPBM binding intensity (ln)” value was 9.67 ± 0.33. With “AATAAGCAGAAACACACACACAAAAAAAAAAAAAAA [CACACA_site719]” the “gcPBM binding intensity (ln)” value was 9.87 ± 0.51. In the case of “TACGAAAGGTAATATTGTACATTACAAAATTTTATA [XGTACX_site5512]”, the “gcPBM binding intensity (ln)” value is reported as 10.7 ± 0.5. In the case of “TATTAAATTATATAGACACACATTATGTATATATAT [CACACA_site345]”, the “gcPBM binding intensity (ln)” value is reported as 9.865 ± 0.049. “TATAGATACACTTTGTGTACATAAAAATTGTATTAA [XGTACX_site7137]” was tested, and the “gcPBM binding intensity (ln)” value was 11.4 ± 0.87. For “AAATTTATAAATTAAAGTACATATTTCTTGAATATT [XGTACX_site859]”, the “gcPBM binding intensity (ln)” value was 11 ± 0.67.
